Laboratory results from the supplement of paper PMC10037445.
The full ranking holds about 2,900 compounds; the median of “NF-kB SEAP reporter activity, fold change vs agonist alone” is about 0.99, and the highest 2% start at about 2.6. The list shows a part of the results.

Columns and labels:
RAW-Dual [1] = test: NF-kB SEAP reporter activity, fold change vs agonist alone; cytotoxicity flag (confluency mask): not cytotoxic; higher = enhanced NF-kB activity
Method in brief: (§1)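 After 50 nL of library stock was delivered by pin tool to RAW-Dual macrophages (50,000 cells/well, DMEM, 384-well plates), a PRR agonist was added 1 h later and the plates were kept at 37 °C, 5% CO2. Twenty hours later, IRF was read from supernatant by QuantiLuc luminescence and NF-κB by QuantiBlue absorbance at 620 nm. Reporter activity is stated as fold change over agonist-alone wells. Wells with IncuCyte confluency under 70% of agonist controls in both mask sets were counted as cytotoxic.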

RAW-Dual [2] = test: NF-kB SEAP reporter activity, fold change vs agonist alone; higher = enhanced NF-kB activity
Method in brief: as §1

RAW-Dual [3] = test: NF-kB SEAP reporter activity, fold change vs agonist alone; cytotoxicity flag (confluency mask): cytotoxic (confluency <70% of control); higher = enhanced NF-kB activity
Method in brief: as §1

[4] = agonist: ODN 1826 (TLR9) 0.5 ug/mL
[5] = agonist: Pam2CSK4 (TLR2/6) 0.1 ug/mL
[6] = agonist: Pam3CSK4 (TLR2/1) 0.1 ug/mL
[7] = library stock concentration (final ~1000-fold dilution): 10 mM, cytotoxicity flag (confluency mask): not cytotoxic, agonist: Imiquimod (TLR7) […]
[8] = library stock concentration (final ~1000-fold dilution): 10 mM, cytotoxicity flag (confluency mask): not cytotoxic, agonist: MPLA (TLR4) […]
[9] = library stock concentration (final ~1000-fold dilution): 10 mM, cytotoxicity flag (confluency mask): cytotoxic (confluency <70% of control), agonist: Imiquimod (TLR7) […]
[10] = library stock concentration (final ~1000-fold dilution): 10 mM, cytotoxicity flag (confluency mask): cytotoxic (confluency <70% of control), agonist: MPLA (TLR4) […]

CC(C)=CCCC(C)(OC1OC(CO)C(O)C(O)C1O)C1CCC2(C)C1C(O)CC1C3(C)CCC(OC4OC(CO)C(O)C(O)C4OC4OC(CO)C(O)C(O)C4O)C(C)(C)C3CCC12C (stereo not drawn) (library stock concentration (final ~1000-fold dilution): 10 mM)
NF-kB SEAP reporter activity (RAW-Dual [1]; agonist: LPS (TLR4) 0.1 ug/mL): 0.838 | NF-kB SEAP reporter activity (RAW-Dual [1]; [4]): 1.11 | NF-kB SEAP reporter activity (RAW-Dual [1]; [5]): 0.899 | NF-kB SEAP reporter activity (RAW-Dual [1]; [6]): 1.02

CC(C)=CCCC(C)(OC1OC(CO)C(O)C(O)C1O)C1CCC2(C)C1C(O)CC1C3(C)CCC(OC4OC(CO)C(O)C(O)C4OC4OC(CO)C(O)C(O)C4O)C(C)(C)C3CCC12C (stereo not drawn)
NF-kB SEAP reporter activity (RAW-Dual [2]; [7]): 1.01 | NF-kB SEAP reporter activity (RAW-Dual [2]; [8]): 1.02

COc1cc(N2CCC(N)CC2)ccc1Nc1ncc(Cl)c(-c2c[nH]c3ccccc23)n1
NF-kB SEAP reporter activity (RAW-Dual [2]; [9]): 0.251 | NF-kB SEAP reporter activity (RAW-Dual [2]; [10]): 0.226

COc1cc(N2CCC(N)CC2)ccc1Nc1ncc(Cl)c(-c2c[nH]c3ccccc23)n1 (library stock concentration (final ~1000-fold dilution): 10 mM)
NF-kB SEAP reporter activity (RAW-Dual [3]; agonist: LPS (TLR4) 0.1 ug/mL): 0.166 | NF-kB SEAP reporter activity (RAW-Dual [3]; [4]): 0.19 | NF-kB SEAP reporter activity (RAW-Dual [3]; [5]): 0.0626 | NF-kB SEAP reporter activity (RAW-Dual [3]; [6]): 0.118

C[N+](C)(C)NCCC(=O)O
NF-kB SEAP reporter activity (RAW-Dual [2]; library stock concentration (final ~1000-fold dilution): 10 mM water, cytotoxicity flag (confluency mask): not cytotoxic, agonist: Imiquimod (TLR7) […]): 0.956 | NF-kB SEAP reporter activity (RAW-Dual [2]; library stock concentration (final ~1000-fold dilution): 10 mM water, cytotoxicity flag (confluency mask): not cytotoxic, agonist: MPLA (TLR4) […]): 1.02

C[N+](C)(C)NCCC(=O)O (library stock concentration (final ~1000-fold dilution): 10 mM water)
NF-kB SEAP reporter activity (RAW-Dual [1]; agonist: LPS (TLR4) 0.1 ug/mL): 1.04 | NF-kB SEAP reporter activity (RAW-Dual [1]; [4]): 1.12 | NF-kB SEAP reporter activity (RAW-Dual [1]; [5]): 1.23 | NF-kB SEAP reporter activity (RAW-Dual [1]; [6]): 1.31

CCOc1ccccc1OC(c1ccccc1)C1CNCCO1.CS(=O)(=O)O (stereo not drawn) (library stock concentration (final ~1000-fold dilution): 10 mM)
NF-kB SEAP reporter activity (RAW-Dual [1]; agonist: LPS (TLR4) 0.1 ug/mL): 1.26 | NF-kB SEAP reporter activity (RAW-Dual [1]; [4]): 0.686 | NF-kB SEAP reporter activity (RAW-Dual [1]; [5]): 1.01 | NF-kB SEAP reporter activity (RAW-Dual [1]; [6]): 0.987

CCOc1ccccc1OC(c1ccccc1)C1CNCCO1.CS(=O)(=O)O (stereo not drawn)
NF-kB SEAP reporter activity (RAW-Dual [2]; [7]): 1.33 | NF-kB SEAP reporter activity (RAW-Dual [2]; [8]): 1.14

CCOC(=O)C1=CC(OC(CC)CC)C(NC(C)=O)C(N)C1 (stereo not drawn) (library stock concentration (final ~1000-fold dilution): 2 mM)
NF-kB SEAP reporter activity (RAW-Dual [1]; agonist: LPS (TLR4) 0.1 ug/mL): 1.17 | NF-kB SEAP reporter activity (RAW-Dual [1]; [4]): 1.08 | NF-kB SEAP reporter activity (RAW-Dual [1]; [5]): 1.16 | NF-kB SEAP reporter activity (RAW-Dual [1]; [6]): 1.11

CCOC(=O)C1=CC(OC(CC)CC)C(NC(C)=O)C(N)C1 (stereo not drawn)
NF-kB SEAP reporter activity (RAW-Dual [2]; library stock concentration (final ~1000-fold dilution): 2 mM, cytotoxicity flag (confluency mask): not cytotoxic, agonist: Imiquimod (TLR7) […]): 0.848 | NF-kB SEAP reporter activity (RAW-Dual [2]; library stock concentration (final ~1000-fold dilution): 2 mM, cytotoxicity flag (confluency mask): not cytotoxic, agonist: MPLA (TLR4) […]): 1.03

CC(c1ncncc1F)C(O)(Cn1cncn1)c1ccc(F)cc1F (stereo not drawn) (library stock concentration (final ~1000-fold dilution): 10 mM)
NF-kB SEAP reporter activity (RAW-Dual [1]; agonist: LPS (TLR4) 0.1 ug/mL): 1.19 | NF-kB SEAP reporter activity (RAW-Dual [1]; [4]): 1.07 | NF-kB SEAP reporter activity (RAW-Dual [1]; [5]): 1 | NF-kB SEAP reporter activity (RAW-Dual [1]; [6]): 1.11

CC(c1ncncc1F)C(O)(Cn1cncn1)c1ccc(F)cc1F (stereo not drawn)
NF-kB SEAP reporter activity (RAW-Dual [2]; [7]): 1.03 | NF-kB SEAP reporter activity (RAW-Dual [2]; [8]): 0.848

O=C(O)c1ccc2c(c1)nc(Nc1cccc(Cl)c1)c1ccncc12 (library stock concentration (final ~1000-fold dilution): 10 mM)
NF-kB SEAP reporter activity (RAW-Dual [1]; agonist: LPS (TLR4) 0.1 ug/mL): 1.48 | NF-kB SEAP reporter activity (RAW-Dual [1]; [4]): 0.767 | NF-kB SEAP reporter activity (RAW-Dual [1]; [5]): 0.523 | NF-kB SEAP reporter activity (RAW-Dual [1]; [6]): 0.707

O=C(O)c1ccc2c(c1)nc(Nc1cccc(Cl)c1)c1ccncc12
NF-kB SEAP reporter activity (RAW-Dual [2]; [7]): 0.836 | NF-kB SEAP reporter activity (RAW-Dual [2]; [8]): 1.24

O=C1CC(=O)c2c(Cl)c(Cl)c(Cl)c(Cl)c21 (library stock concentration (final ~1000-fold dilution): 10 mM)
NF-kB SEAP reporter activity (RAW-Dual [1]; agonist: LPS (TLR4) 0.1 ug/mL): 0.891 | NF-kB SEAP reporter activity (RAW-Dual [1]; [4]): 0.801 | NF-kB SEAP reporter activity (RAW-Dual [1]; [5]): 0.923 | NF-kB SEAP reporter activity (RAW-Dual [1]; [6]): 0.823

O=C1CC(=O)c2c(Cl)c(Cl)c(Cl)c(Cl)c21
NF-kB SEAP reporter activity (RAW-Dual [2]; [7]): 0.836 | NF-kB SEAP reporter activity (RAW-Dual [2]; [8]): 1.17

COc1ccc(S(=O)(=O)Nc2cccnc2Nc2ccc(O)cc2)cc1 (library stock concentration (final ~1000-fold dilution): 10 mM)
NF-kB SEAP reporter activity (RAW-Dual [1]; agonist: LPS (TLR4) 0.1 ug/mL): 4.93 | NF-kB SEAP reporter activity (RAW-Dual [1]; [4]): 3.17 | NF-kB SEAP reporter activity (RAW-Dual [1]; [5]): 1.86 | NF-kB SEAP reporter activity (RAW-Dual [1]; [6]): 2.22

COc1ccc(S(=O)(=O)Nc2cccnc2Nc2ccc(O)cc2)cc1
NF-kB SEAP reporter activity (RAW-Dual [2]; [7]): 2.48 | NF-kB SEAP reporter activity (RAW-Dual [2]; [8]): 1.92

O=C1NCCc2[nH]c(-c3ccncc3)cc21
NF-kB SEAP reporter activity (RAW-Dual [2]; [9]): 2.03 | NF-kB SEAP reporter activity (RAW-Dual [2]; [10]): 1.23

O=C1NCCc2[nH]c(-c3ccncc3)cc21 (library stock concentration (final ~1000-fold dilution): 10 mM)
NF-kB SEAP reporter activity (RAW-Dual [3]; agonist: LPS (TLR4) 0.1 ug/mL): 0.494 | NF-kB SEAP reporter activity (RAW-Dual [3]; [4]): 2.47 | NF-kB SEAP reporter activity (RAW-Dual [3]; [5]): 0.576 | NF-kB SEAP reporter activity (RAW-Dual [3]; [6]): 0.606

O=C(/C=C/c1ccc(O)c(O)c1)c1ccc(O)cc1O (library stock concentration (final ~1000-fold dilution): 10 mM)
NF-kB SEAP reporter activity (RAW-Dual [1]; agonist: LPS (TLR4) 0.1 ug/mL): 0.414 | NF-kB SEAP reporter activity (RAW-Dual [1]; [4]): 0.263 | NF-kB SEAP reporter activity (RAW-Dual [1]; [5]): 0.16 | NF-kB SEAP reporter activity (RAW-Dual [1]; [6]): 0.145

O=C(/C=C/c1ccc(O)c(O)c1)c1ccc(O)cc1O
NF-kB SEAP reporter activity (RAW-Dual [2]; [7]): 0.628 | NF-kB SEAP reporter activity (RAW-Dual [2]; [8]): 0.736

COc1ccccc1N1CCN(CCCNc2cc(=O)n(C)c(=O)n2C)CC1.Cl (library stock concentration (final ~1000-fold dilution): 10 mM)
NF-kB SEAP reporter activity (RAW-Dual [1]; agonist: LPS (TLR4) 0.1 ug/mL): 1.02 | NF-kB SEAP reporter activity (RAW-Dual [1]; [4]): 0.978 | NF-kB SEAP reporter activity (RAW-Dual [1]; [5]): 1.06 | NF-kB SEAP reporter activity (RAW-Dual [1]; [6]): 1.17

COc1ccccc1N1CCN(CCCNc2cc(=O)n(C)c(=O)n2C)CC1.Cl
NF-kB SEAP reporter activity (RAW-Dual [2]; [7]): 1.18 | NF-kB SEAP reporter activity (RAW-Dual [2]; [8]): 0.935

O=C(CCCCCCC(=O)Nc1ccccc1)NO (library stock concentration (final ~1000-fold dilution): 10 mM)
NF-kB SEAP reporter activity (RAW-Dual [3]; agonist: LPS (TLR4) 0.1 ug/mL): 6.47 | NF-kB SEAP reporter activity (RAW-Dual [3]; [4]): 2.34 | NF-kB SEAP reporter activity (RAW-Dual [3]; [5]): 0.808 | NF-kB SEAP reporter activity (RAW-Dual [3]; [6]): 1.86

O=C(CCCCCCC(=O)Nc1ccccc1)NO
NF-kB SEAP reporter activity (RAW-Dual [2]; [9]): 2.38 | NF-kB SEAP reporter activity (RAW-Dual [2]; [10]): 2.6
